The values below come from PubChem BioAssay (NCI).

Each structure is given as a SMILES string.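 Briefly, cells in 96-well plates were exposed to five compound concentrations for 48 h, and endpoints were estimated by linear interpolation. GI50 = concentration required for 50% inhibition of growth. TGI: concentration producing complete growth inhibition.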

This assay has as its system NCI-H322M lung. The assay can be described thus: NCI-60 cell line screen, 48 h.
Consider `COC(=N)C12C(N)=NC(OC)(OC)C1(C#N)C21C(=O)N(c2ccccc2)N=C1C` (centres undefined), for which the TGI was greater than 100 µM.
The same measure, in the same setting: the result for `CCOC(=O)c1c(NC(=O)Nc2ccccc2)c(C(N)=O)c2n1CCCCC2` reads greater than 100 µM.
The compound `O=C(c1ccccc1)c1c(C(=O)c2ccccc2)c(-c2ccccc2)c2c(-c3ccccc3)sc(-c3ccccc3)c2c1-c1ccccc1` registered a TGI greater than 100 µM.
`O=c1cc2ccccc2nn1-c1ccccc1Cl` came in with a TGI greater than 100 µM.
In the case of `COc1cc2c(/C=C3/C(=O)Nc4ccccc43)c(Cl)n(Cc3ccccc3[N+](=O)[O-])c2cc1C`, the GI50 was 14.9 µM and the TGI came to 40.5 µM.
Compound `CC1NOC(=O)C1N=Nc1ccccc1Cl` (centres undefined) displayed a TGI greater than 100 µM.
On to `Cc1nc2cccc(NCc3ccc(C(=O)NO)cc3)c2c(=O)n1-c1ccccc1`, for which the GI50 was 2.73 µM and the TGI turned out to be 13 µM.
`CN(C)CCO/N=C1/C=C2CC[C@H]3[C@@H]4CC[C@H](O)[C@@]4(C)CC[C@@H]3[C@@]2(C)CC1` registered a TGI of 48.3 µM.
In the case of `C=C1C(=O)C23CC1C[C@H](OC(C)=O)C2C1(C)C(OC(C)=O)C[C@H](O)C(C)(C)[C@H]1C(O)[C@@H]3OC(C)=O` (some centres undefined), the TGI stood at 43.9 µM.
On the same count and under the same terms, the result for `O=C1/C(=C\c2ccc(-c3ccc(Cl)cc3Cl)o2)SC2N=C(COc3ccc(Cl)cc3)NN12` (centres undefined) reads greater than 100 µM.
On the same count and under the same terms, the result for `COC(=O)N/N=C/c1oc(-c2cccc([N+](=O)[O-])c2)c(-c2cccc([N+](=O)[O-])c2)c1[N+](=O)[O-]` reads greater than 100 µM; that for `COC(=O)c1ccc(N=NN(C)CO)cc1`, greater than 100 µM.
The same measure, in the same setting: to `CC1(C)C(=O)N=C(N)N1C(=O)OCc1ccccc1` belongs greater than 100 µM.
Take `C[C@]12CC[C@@H]3c4ccc(O)cc4CC[C@H]3[C@@H]1CC[C@@H]2NS(=O)(=O)Cc1ccc(Cl)cc1`: the GI50 was 4.08 µM and the TGI was 16.3 µM.
The compound `CC(O)C(O)C(N)CC=O` (centres undefined) came in with a TGI greater than 500 µM.
Still for that read-out and setting: the result for `CS(=O)c1ccc(COP(N)(=O)N(CCCl)CCCl)cc1` (centres undefined) reads greater than 100 µM; that for `C=C1C(=O)OC2C1C(OC(=O)/C(C)=C/C)CC1(C)C(=O)CCC(=C)C21` (centres undefined), 45.5 µM; that for `COc1ccc2ccc([Se]c3ccc4ccc(OC)cc4c3)cc2c1`, greater than 100 µM.
Same read-out and setting: the result for `CSc1cc(Cl)c(C)cc1S(=O)(=O)NC(=O)NNc1ccc(F)c(Cl)c1` reads greater than 100 µM; that for `ON=C1CCC(c2ccccc2)CC1` (centres undefined), greater than 100 µM.
On to `COC(=O)/C(=C\c1c(C)[nH]c2ccccc12)S(=O)(=O)c1ccccc1`, for which the GI50 was 8.81 µM and the TGI came out at 28.5 µM.
Compound `COc1cc2cc(C(=O)N3CC(CCl)c4ccc(NCCN)cc43)[nH]c2c(OC)c1OC` (centres undefined) displayed a TGI of 3.24 µM.
On the same count and under the same terms, to `CCCCc1c2c(nc3c1CCC/C3=C\c1ccccc1)C(=O)C(CN(C)C)CC2` (centres undefined) belongs 25.4 µM; to `c1ccc2sc(C3(N4CCCCC4)CCCC3)cc2c1`, 24.1 µM.
In the case of `COc1ccc(/C=C\c2cc(OC)c(OC)c(OC)c2)cc1OCC(=O)Nc1nc2ccc(C(F)(F)F)cc2s1`, the GI50 was 5.38 µM and the TGI was greater than 100 µM.
The compound `CC1OC(O[C@H]2CC[C@]3(C)[C@H]4CC=C5[C@@H]6[C@@H](C)[C@H](C)CC[C@]6(C(=O)O)CC[C@@]5(C(=O)O)[C@]4(C)CC[C@H]3C2(C)C)C(O)C(O)C1O` (some centres undefined) had a TGI greater than 75 µM.
The same measure, in the same setting: to `CC(C)(O)C1OCC(C2CCC3(C)C4=CCC5C(C)(C)C(O)CCC5(C)C4CCC23C)CC1O` (centres undefined) belongs 30.1 µM.
On the same count and under the same terms, the result for `O=[N+]([O-])C(=C(N1CCOCC1)N1CCOCC1)/C(Cl)=C(\Cl)[N+](=O)[O-]` reads 53.9 µM.
With `Fc1ccc(-c2ccc(-c3nnc(-c4cc(F)c(Cl)cc4Cl)o3)o2)cc1Cl`, the GI50 is 30.9 µM and the TGI was greater than 100 µM.
In turn, `CCCCCCCCCCCCCCCCP(=O)(O)OP(=O)(O)OCC1OC(n2cnc3c(N)ncnc32)C(O)C1O` (centres undefined) came in with a TGI greater than 100 µM.
Take `Cc1[nH]c(/C=C2\C(=O)Nc3ccc(F)cc32)c(C)c1C(=O)NC[C@H](O)CN1CCOCC1`: the GI50 was 3.05 µM and the TGI is greater than 10 µM.
As for `CC1C[C@]2(C)C(=S)Nc3ccccc3[C@@H]2Nc2ccccc21` (some centres undefined), the TGI is 38.2 µM.
